Data published in paper PMC11245519, “Ubiquitous purine sensor modulates diverse signal transduction pathways in bacteria” (Nature Communications, 2024).
Where two headings read alike, the source gives them in different places.

Experiments:
[1] = test system: dCache_1PU domains (11 proteins analyzed); assay: Summary of binding data (thermal shift assays and ITC) for the 11 dCache_1PU proteins; settings: of the 11 proteins analyzed
[2] = test system: aptamer; parameters: method as in PMID 7510417; settings: cited from earlier work
[3] = test system: R10 (WP_110129388-LBD); format: binding, Coraliomargarita sinensis; settings: change in Tm, threshold 2 °C; cells left empty in Table 3
[4] = target: R1 (WP_219614703-LBD) (Aeromonas salmonicida, UniProt T0PLV6); assay: Microcalorimetric titration (ITC) of the R1 LBD with ligands; format: binding
[5] = test system: R6 diguanylate cyclase (VC2224) expressed in P. putida KT2440 pCdrA::gfpC; format: cell-based; settings: minimal medium agar plates, 24 h, 30 °C; wild-type R6
[6] = target: R15 (WP_207952809-LBD) (Paenibacillus agricola, UniProt A0ABX0IZG8); assay: Microcalorimetric titration (ITC) of the R15 LBD with ligands; format: binding, Paenibacillus sp. S3N08; settings: One binding site model, * = hyperbolic curve
[7] = target: R8 (WP_227113344-LBD) (Eggerthella sinensis, UniProt A0ABX9HL97); assay: Microcalorimetric titration (ITC) of the R8 LBD with ligands; settings: One binding site model, * = hyperbolic curve
[8] = target: R14 (WP_021170906-LBD) (Sporomusa ovata, UniProt A0A0U1L1T7); assay: Microcalorimetric titration (ITC) of the R14 LBD with ligands; format: binding; settings: One binding site model, * = hyperbolic curve
[9] = target: R6 (WP_185834821-LBD) (Vibrio cholerae, UniProt Q9KPY8); assay: biochemical; format: binding; settings: ITC, One binding site model; * = hyperbolic curve

R15 (WP_207952809-LBD), sequence (A0ABX0IZG8 entry or part of it): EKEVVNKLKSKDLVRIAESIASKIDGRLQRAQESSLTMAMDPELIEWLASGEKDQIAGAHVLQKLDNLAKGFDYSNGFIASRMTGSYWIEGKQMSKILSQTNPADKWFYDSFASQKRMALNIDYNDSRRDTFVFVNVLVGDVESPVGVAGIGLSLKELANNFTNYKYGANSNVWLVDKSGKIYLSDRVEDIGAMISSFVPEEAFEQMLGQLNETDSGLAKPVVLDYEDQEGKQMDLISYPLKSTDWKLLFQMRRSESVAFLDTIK
R14 (WP_021170906-LBD), sequence (A0A0U1L1T7 entry or part of it): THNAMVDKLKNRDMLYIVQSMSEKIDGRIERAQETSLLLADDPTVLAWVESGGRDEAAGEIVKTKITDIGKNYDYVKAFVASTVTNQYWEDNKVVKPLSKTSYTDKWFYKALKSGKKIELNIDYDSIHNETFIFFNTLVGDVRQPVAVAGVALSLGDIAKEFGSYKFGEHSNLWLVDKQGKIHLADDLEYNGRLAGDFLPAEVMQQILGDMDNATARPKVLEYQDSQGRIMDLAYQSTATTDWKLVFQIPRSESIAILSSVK

For `Cn1c(=O)c2c(ncn2C)n(C)c1=O` [Caffeine, reference compound], the “Proteins that bound / recognized the ligand” value [1] is listed as “none of the proteins” and the “Reduction of affinity as compared to theophylline” value [2] is listed as 10,000 times.

With `Nc1ncnc2[nH]cnc12` [Adenine] the “Binding in thermal shift assay, R10 (Supplementary Table 3)” value [3] was “Nts (No binding observed in thermal shift assays, i.e. compounds caused changes in the midpoint of protein unfolding (Tm) of less than 2 ºC)” and the “N value, R1” value [4] was 0.18.

In the case of `O=c1[nH]cnc2c1ncn2[C@@H]1O[C@H](CO)[C@@H](O)[C@H]1O` [Inosine], the “Concentration at which colonies became wrinkly (onset of the response)” value [5] is reported as ≥ 50 µM, the “N value, R1” value ([4]; ITC, One binding site model, * = hyperbolic curve) is reported as 0.12 and the “N value, R15” value [6] is reported as 0.22. For the same compound, the “N value, R8” value [7] was 0.12, the “N value, R14” value [8] was 0.09 and the “N value, R6” value [9] was 0.45.
